Out of some 52,000 compounds screened, about 1,700 (3.3%) were called active. Rule as the data show it: active = survival mostly below about 52% (no sharp cut-off); inactive = mostly above about 56%. Some of the results follow.

The test system of the assay is Wild type. Nature of the assay: S. aureus survival, RN4220 and DeltatarO strains – OD600, teichoic acid synthesis inhibitors, primary screen (AID 463173). The settings on record: S. aureus RN4220 wild type/DeltatarO growth, OD600, 18 h, active compounds read low, screened at 18.75 µg/mL (by protocol).
Take `Cc1nc(N2CCCC2)c2c(C(=O)N3CCN(c4cc(Cl)ccc4C)CC3)c(C)oc2n1`: the survival was inactive: 99%. Regarding `COc1cc(S(=O)(=O)N(Cc2cccnc2)Cc2ccco2)ccc1-n1cnnn1`, the survival is inactive: 107%. Turning to `CCN(CC)CCNc1nc2c(c(=O)[nH]c(=O)n2C)n1Cc1ccccc1Cl`, the survival is inactive: 110%. As to `COc1cc(OC)c(NC(=O)c2cc3c(=O)oc4ccc(C)cc4c3s2)cc1Cl`, the survival was inactive: 87%.

With `Cn1c(CCCCN)nc2ccccc21`, the survival is inactive: 98%. Turning to `Cc1ccc(-n2ncc3c(NCCO)ncnc32)cc1Cl`, the survival is inactive: 69%. As for `Cc1cc(NC(=O)c2cc(-c3ccc(Cl)cc3)on2)n(-c2ccccc2)n1`, the figure is inactive: 81%; as for `COc1ccc(-c2cc(C(=O)Nc3cccnc3)no2)cc1OC`, inactive: 66%. Turning to `CC(C)c1nc2sc3c(c2c(=O)n1N)CC(C)(C)OC3`, the survival is inactive: 105%. For the molecule `COc1ccc(CNC(=O)Cc2ccc(NC(=O)N3CCSc4ncccc43)cc2)cc1OC`, the survival is inactive: 75%. `COC(=O)c1cc2oc3ccccc3c2n1CC(=O)Nc1ccc(C)c(F)c1`: the survival was inactive: 86%.

For `COc1ccc(S(=O)(=O)Nc2cccc(-c3ccc(N4CCC(C)CC4)nn3)c2)c(OC)c1`, the survival was inactive: 63%. Take `CCOc1ccc(NC(=O)Cn2c(=O)n(-c3cccc(Cl)c3)c(=O)c3c2c2cc(C)ccc2n3C)cc1`: the survival was inactive: 139%. The value for `COc1cc(NC(=O)c2ccc3oc(=O)c(S(=O)(=O)c4ccccc4)cc3c2)cc(OC)c1` was inactive: 84%; that for `COc1c(C)cc(Br)cc1C(=O)Nc1ccc(-c2nc3ncccc3o2)cc1` was inactive: 58%. As for `Cc1cccc(C(=O)N2CCc3cc(CNC(=O)COc4ccc(Cl)cc4)ccc32)c1`, the survival was inactive: 53%. Turning to `Cc1cc(C(F)(F)F)c2c(N)c(C#N)sc2n1`, the survival is inactive: 116%. For the molecule `CCOc1cccc(C2c3[nH]c4ccccc4c3CCN2C(=O)CSc2ccccc2)c1` (stereo unspecified), the survival is inactive: 83%. In the case of `O=C(CN1C(=O)c2ccccc2C1=O)Nc1ccccc1C(=O)N1CCCC1`, the survival was inactive: 104%.

Turning to `COc1ccc(NC(=O)Cn2c(=O)n(CCc3ccccc3)c(=O)c3c4c(sc32)CCCC4)cc1`, the survival was inactive: 97%. Take `Cc1ccc(N2C(=O)CSC23C(=O)N(Cc2ccccc2F)c2ccccc23)cc1F` (stereo unspecified): the survival was inactive: 77%. Turning to `CCOC(=O)c1c(NC(=O)c2nc(SCC)ncc2Cl)sc2c1CCCC2`, the survival is inactive: 91%.

For `CC(C)c1ccc(NC(=O)C2CCN(S(=O)(=O)c3cccc4nonc34)CC2)cc1`, the survival was inactive: 114%. As for `Cc1ccccc1Nc1c(-c2ccc(Cl)cc2)nc2c(C)cccn12`, the figure is inactive: 73%. Regarding `CCSc1nnc2c(n1)OC(c1cc(OC)c(OC)c(OC)c1)Nc1ccccc1-2` (stereo unspecified), the survival is inactive: 65%.

In the case of `CC(C)=NNC(=O)c1nnn(-c2nonc2N)c1CN1CCOCC1`, the survival is inactive: 108%. As for `CCOC(=O)c1c(C)[nH]c(C)c1S(=O)(=O)NCC(=O)Nc1ccc(C)c(N(C)C)c1`, the figure is inactive: 53%. Take `CCOc1cc(CNC(=O)Cn2c(=O)c3cccn3c3ccc(F)cc32)cc(OCC)c1OCC`: the survival is inactive: 97%. Turning to `COc1cc2c(=O)c(C(=O)c3ccc(C)c(C)c3)cn(Cc3ccc(F)cc3)c2cc1OC`, the survival was inactive: 85%.

On to `CCOc1ccccc1NC(=O)c1ccc2c(c1)CCN2S(=O)(=O)c1ccc(C)cc1`, for which the survival was inactive: 97%. As for `Cc1ccccc1NC(=O)CSc1cn(CC(=O)N2CCCCCC2)c2ccccc12`, the figure is inactive: 91%; as for `Cc1nc(SCC(=O)Nc2ccccc2C)cc(-c2ccccc2)n1`, inactive: 78%; as for `CCC(CC)c1nn2c(=O)cc(COc3ccc(NC(=O)c4ccccc4C)cc3)nc2s1`, inactive: 88%. With `Cc1ccccc1NC(=O)c1ccc2[nH]c(C)c(C)c2c1`, the survival is inactive: 124%.

As to `CCC1CN(S(=O)(=O)c2cc(-c3cc(C)no3)ccc2C)c2cc(Cl)ccc2O1` (stereo unspecified), the survival is inactive: 70%. Regarding `COc1cc(NC(=O)CC2C(=O)OCCN2Cc2ccccc2)cc(OC)c1` (stereo unspecified), the survival was inactive: 140%. Consider `COc1cc(NS(=O)(=O)c2ccc(NC(=O)c3cccc(F)c3)cc2)nc(OC)n1`, for which the survival is inactive: 93%. Turning to `COc1ccc(C(=O)NCC(c2cccnc2)N2CCN(c3ccccc3)CC2)cc1` (stereo unspecified), the survival is inactive: 84%. On to `CCCc1nn2c(=O)cc(COC(=O)c3cccc(NC(=O)c4cccs4)c3)nc2s1`, for which the survival is inactive: 73%. Consider `CCc1cccc(C)c1NC(=O)CCS(=O)(=O)c1cc(Br)cc2c1N(C(=O)C1CC1)CC2`, for which the survival is inactive: 85%. With `COc1cccc(Cn2c(=O)cc(C)c3c(C)nn(C)c32)c1`, the survival was inactive: 85%.

For the molecule `O=C(CCCCn1c(=O)c2ccccc2n(CC(=O)Nc2cccc(C(F)(F)F)c2)c1=O)NCc1ccc2c(c1)OCO2`, the survival was inactive: 86%. Regarding `O=C(Nc1ccc(C(=O)OCc2cc(=O)n3c4c(sc3n2)CCCC4)cc1)c1ccc(F)cc1`, the survival was inactive: 78%.

As for `CCc1nn2c(-c3ccccc3OC)ccnc2c1-c1ccccc1`, the survival is active: -12%. Consider `Cc1c(C(=O)NCc2ccc(Cl)cc2)sc2nc3n(c(=O)c12)CCCCC3`, for which the survival was inactive: 81%. For the molecule `COc1ccc(S(=O)Cc2ccc(C(=O)N3CCN(c4cccc(C)c4C)CC3)o2)cc1` (stereo unspecified), the survival is inactive: 77%. Turning to `Cc1c(Cl)cccc1NC(=O)Cn1c(=O)n(Cc2ccco2)c(=O)c2sc3ccccc3c21`, the survival was inactive: 130%. For `Cc1ccc(-n2nnc(-c3nc(-c4cccs4)no3)c2N)cc1C`, the survival was inactive: 100%. `Cc1ccc(Cl)cc1NC(=O)COC(=O)CC(C)(C)CC1=NS(=O)(=O)c2ccccc2N1`: the survival was inactive: 56%. As for `O=C(NCCc1ccccc1)C(=O)NCC(c1ccco1)S(=O)(=O)c1cccs1` (stereo unspecified), the figure is inactive: 75%. With `Cc1ccccc1NC(=O)c1ccc(F)c(S(=O)(=O)N2CCN(c3ccccc3F)CC2)c1`, the survival was inactive: 82%. For `COc1ccc(-c2nc(CSc3nncn4c3cc3oc(C)cc34)c(C)o2)cc1`, the survival is inactive: 89%.

As to `CCOC(=O)c1cnc2ccccc2c1NCCCN(C)C`, the survival is inactive: 112%. The value for `COc1cc(NC(=O)CN2C(=O)c3ccccc3Sc3ccc(C(=O)N4CCCC4)cc32)cc(OC)c1` was inactive: 81%; that for `COc1ccc(OC)c(CCNC(=O)c2ccc3c(c2)c(C)c(C)n3Cc2ccccc2)c1` was inactive: 85%; that for `CCOC(=O)c1ccccc1NC(=O)CN1CCCN(Cc2cc(C)ccc2C)S1(=O)=O` was inactive: 131%.

For the origin of these results see PubChem BioAssay AID463173 (ICCB-Longwood Screening Facility, Harvard Medical School, 2010).
